Data on 86 compounds can be found in PubChem BioAssay AID1645887 (National Center for Advancing Translational Sciences (NCATS), 2021).

Values joined by “and” are separate entries in the source; they are usually repeats but may differ in a detail not shown here. Identical values can stand only once. The whole screen tested about 16,000 compounds, of which about 40 (0.2%) were called active. Not shown: some 1% with an inconclusive outcome. The call rests on the fitted dose curve; in most records, active means well fitted activation curve with a large enough effect; inconclusive means small, poorly fitted or top-dose-only effect, or another doubt; inactive means no such curve, though single readings can be large or run the other way. This is one part of the list.
On the % scale 0 is the no-effect control and ±100 the full control effect.

UniProt Q8WZA2, sequence (Q8WZA2 whole entry, looked up): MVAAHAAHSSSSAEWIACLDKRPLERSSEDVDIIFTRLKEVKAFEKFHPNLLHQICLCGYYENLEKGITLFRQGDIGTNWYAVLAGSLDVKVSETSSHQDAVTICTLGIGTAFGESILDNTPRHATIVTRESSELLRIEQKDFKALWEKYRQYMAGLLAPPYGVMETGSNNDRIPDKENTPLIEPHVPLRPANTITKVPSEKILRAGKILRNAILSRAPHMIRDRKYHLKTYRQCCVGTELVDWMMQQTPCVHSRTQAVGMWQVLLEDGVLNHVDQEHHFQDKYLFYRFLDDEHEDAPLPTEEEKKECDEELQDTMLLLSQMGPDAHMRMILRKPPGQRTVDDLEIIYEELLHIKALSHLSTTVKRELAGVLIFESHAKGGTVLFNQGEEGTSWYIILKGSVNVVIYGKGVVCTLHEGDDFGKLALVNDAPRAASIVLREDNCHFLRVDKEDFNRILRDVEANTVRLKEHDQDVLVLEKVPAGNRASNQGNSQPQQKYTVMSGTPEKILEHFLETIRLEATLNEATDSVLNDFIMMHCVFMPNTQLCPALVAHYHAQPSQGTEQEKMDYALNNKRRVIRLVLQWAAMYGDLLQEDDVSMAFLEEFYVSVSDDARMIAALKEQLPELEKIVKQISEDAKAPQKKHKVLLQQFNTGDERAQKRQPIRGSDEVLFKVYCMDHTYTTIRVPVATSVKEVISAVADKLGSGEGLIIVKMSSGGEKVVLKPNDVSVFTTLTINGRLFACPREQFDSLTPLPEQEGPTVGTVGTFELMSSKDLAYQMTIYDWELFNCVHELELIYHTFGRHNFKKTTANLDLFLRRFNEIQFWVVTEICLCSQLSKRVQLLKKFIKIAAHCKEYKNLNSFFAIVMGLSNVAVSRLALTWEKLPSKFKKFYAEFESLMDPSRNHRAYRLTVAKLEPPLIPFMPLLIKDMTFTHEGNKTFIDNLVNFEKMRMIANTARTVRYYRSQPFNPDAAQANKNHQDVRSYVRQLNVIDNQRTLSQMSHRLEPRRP

In the test the target is Rap guanine nucleotide exchange factor 4 (Homo sapiens) (UniProt Q8WZA2). The experiment in a line: Validation qHTS for agonist of cAMP-regulated guanine nucleotide exchange factor 4 (EPAC2).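 Further: exchange makes BODIPY-GDP fluorescence drop when released from Rap1B; series mostly up to about 150 µM.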 As to conditions: EPAC2 Rap1B BODIPY-GDP exchange, fluorescence; activation: active compounds read high. Put shortly:
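Signal normalized against 6.5 mM cAMP as agonist control. Mix of EPAC2 (100 nM), RAP1B-BODIPY-GDP (250 nM) and GDP (50 uM) was read kinetically at 480/540 nm, every 5 min over 30 min, after 5 min room-temperature incubation with compound.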
A general note: Quantitative high-throughput screening tests each substance at several concentrations.
Consider `CC(Cc1ccccc1)NCc1ccccc1Cl` (stereo unspecified), for which the activation is inactive: 1.75%.

Consider `N#CC(O[C@@H]1OC(COC2OC(CO)C(O)C(O)[C@@H]2O)C(O)C(O)C1O)c1ccccc1` (stereo partly specified), for which the activation was inactive: -2.56%.

In the case of `CC1(C)C(O)CC(O)[C@]2(C)C1CC(=O)[C@]1(C)C2CC[C@@]2(C)C(c3ccoc3)OC(=O)C3OC321` (stereo partly specified), the activation is inactive: 3.51%. For the compound `COc1ccc2c(c1OC)CN1CCc3cc4c(cc3C1C2)OCO4` (stereo unspecified), the activation was inactive: 1.08%. On to `CCCC(C)(COC(N)=O)COC(=O)NC1CC1` (stereo unspecified), for which the activation was inactive: -9.04%.

`O=C(Oc1ccccc1)N1CCC[C@@]2(CCN(C(c3ccccc3)c3ccccc3)C2)C1`: the activation is inactive: -10.4%. For the compound `C[CH2][Hg][S]c1ccccc1C(=O)O`, the activation is inactive: -10.5%. In the case of `O=C1CC2OCC=C3CN4CC[C@@]56c7ccccc7N1C5C2C3CC46` (stereo partly specified), the activation was inactive: -3.28%. Turning to `CCN(CC)C(=O)N[C@H]1C[C@@H]2c3cccc4[nH]cc(c34)C[C@H]2N(C)C1`, the activation is inactive: 19.8%.

Consider `O=C(Oc1ccccc1)N1CCC2(CC1)CCN(C(c1ccccc1)c1ccccc1)CC2`, for which the activation was inactive: -17.1%. The value for `COP(=S)(OC)Oc1ccc(S(=O)(=O)N(C)C)cc1` was inactive: -7.33%; that for `Cc1nnc2n1-c1sc(CCC(=O)N3CCOCC3)cc1C(c1ccccc1Cl)=NC2` was inactive: 6.73% and inactive: -6.07%; that for `CC(N)[C@@H](O)c1ccccc1` (stereo partly specified) was inactive: -6.76%. Consider `Oc1cc(Cl)c(Cl)cc1Cl`, for which the activation was inactive: -24.8%. As to `CN(C)CCc1c[nH]c2ccccc12`, the activation is inactive: -6.43%.

For `CC[N+]1(C)CCCC(OC(=O)C(O)(c2ccccc2)c2ccccc2)C1` (stereo unspecified), the activation was inactive: -6.45%. Regarding `C/C=C(/C)C(=O)O[C@H]1C(C)=C2[C@H]([C@@H]1OC(=O)CCCCCCC)[C@@](C)(OC(C)=O)C[C@H](OC(=O)CCC)[C@@]1(O)[C@H]2OC(=O)[C@@]1(C)O`, the activation was inactive: 8.82% and inactive: -105%. For `Cc1o[nH]c(=O)c1C[C@H](N)C(=O)O`, the activation is inactive: -13.7% and inactive: -13.6% and inactive: 3.9%. Turning to `Clc1ccc2c(c1)C(c1ccccc1)=NCc1nncn1-2`, the activation is inactive: 13.5%. For the compound `CC(C)Nc1nc(Cl)nc(NC(C)C)n1`, the activation was inactive: -7.23%.

Take `c1ccc2c(c1)OCC(C1=NCCN1)O2` (stereo unspecified): the activation was inactive: -0.494% and inactive: -15.7%. For the compound `CC1OC(O[C@@H]2C(O)CC(O[C@@H]3C(O)C[C@@H](OC4CC[C@]5(C)[C@H](CC[C@H]6[C@@H]5CC[C@]5(C)C(C7=CC(=O)OC7)C(O)C[C@@]65O)C4)OC3C)OC2C)CC(O)C1O` (stereo partly specified), the activation was inactive: -13.2%. For the compound `Nc1ccc([N+](=O)[O-])cc1`, the activation is inactive: -7.23%.

Consider `CCCCSP(=O)(SCCCC)SCCCC`, for which the activation was inactive: -5.02%.

For the compound `CC(C)C(O)(C(=O)OC[C@@H]1CC[N+]2([O-])CCCC12)C(C)O` (stereo partly specified), the activation was inactive: -12.6%. Turning to `O=S1OCC2C(CO1)C1(Cl)C(Cl)=C(Cl)C2(Cl)C1(Cl)Cl` (stereo unspecified), the activation was inactive: -9.8%.

As to `N#Cc1c(Cl)c(Cl)c(Cl)c(C#N)c1Cl`, the activation is inactive: -8.35%. Turning to `CC1O[C@@H](OC2CC[C@@]3(C=O)C4CC[C@]5(C)C(C6=CC(=O)OC6)CC[C@@]5(O)C4CC[C@]3(O)C2)C(O)C(O)C1O` (stereo partly specified), the activation is inactive: -5.51%. Turning to `CCCN(CCC)[C@H]1CCc2c(F)ccc(O)c2C1`, the activation was inactive: -61.6%.

`CC1C(=O)OC2C(O)C34C5OC(=O)[C@@]3(OC3OC(=O)[C@H](O)[C@]34C(C(C)(C)C)C5O)[C@]12O` (stereo partly specified): the activation is inactive: 4.49%. Consider `CCCC[N+]1(C)C2CC(OC(=O)[C@H](CO)c3ccccc3)CC1C1OC12` (stereo partly specified), for which the activation was inactive: -40.6%. The value for `c1ccc(C2CNCc3ccccc32)cc1` (stereo unspecified) was inactive: 2.51%; that for `CCCCCC[C@H]1C(=O)O[C@H](C)[C@H](NC(=O)c2cccc(NC=O)c2O)C(=O)O[C@@H](C)[C@@H]1OC(=O)CC(C)C` was inactive: -36.4%; that for `C=C(C)[C@H]1C2C(=O)O[C@H]1[C@H]1OC(=O)[C@@]34O[C@@H]3C[C@]2(O)[C@@]14C` was inactive: 11% and inactive: 4.18%.

Take `CN(C)CCc1c[nH]c2cccc(O)c12`: the activation was inactive: 7.04%. For `N#Cc1ccc(CN2CCCC3(CCN(C(=O)Oc4ccccc4)CC3)C2)cc1` the value was inactive: 2.19%; for `O=c1ccc2cc(O[C@@H]3O[C@H](CO)[C@@H](O)[C@H](O)[C@H]3O)c(O)cc2o1`, inactive: -23.9%; for `COc1cc2c(cc1O)C[C@H]1c3c(cc(OC)c(O)c3-2)CCN1C`, inactive: 10.8%.

As to `CC(C)NC(C)Cc1ccc(I)cc1` (stereo unspecified), the activation was inactive: -14.3% and inactive: -15.6%. As for `O=C(Oc1ccccc1)N1CCC2(CCN(Cc3ccccc3)CC2)CC1`, the activation is inactive: -16.2%.

With `CC(C)=CCCC1(C)C=Cc2c(O)c3c(c(CC=C(C)C)c2O1)OC12C(=CC4CC1C(C)(C)OC2(C/C=C(/C)C(=O)O)C4=O)C3=O` (stereo unspecified), the activation was inactive: -53.4%. `O=C1c2ccccc2-c2cccc3cccc1c23`: the activation is inactive: 24.1%. Turning to `CSCC[C@H](NC(=O)[C@H](Cc1ccccc1)NC(=O)CNC(=O)CNC(=O)[C@@H](N)Cc1ccc(O)cc1)C(=O)O`, the activation is inactive: 5.13%. On to `CNc1ccc2oc(C[C@H]3O[C@]4(CC[C@H]3C)O[C@H]([C@H](C)C(=O)c3ccc[nH]3)[C@H](C)C[C@H]4C)nc2c1C(=O)O`, for which the activation was inactive: -15.1%. The value for `CNCC/C=C/c1cccnc1` was inactive: -0.407%.

`C[C@](O)(CS(=O)(=O)c1ccc(F)cc1)C(=O)Nc1ccc(C#N)c(C(F)(F)F)c1`: the activation was inactive: 13%. The value for `NCC(O)c1ccc(O)cc1` (stereo unspecified) was inactive: -0.724% and inactive: -8.94%. With `COC(=O)N1CCN(C(=O)Cc2ccc(Cl)c(Cl)c2)C(CN2CCCC2)C1` (stereo unspecified), the activation was inactive: 1.27% and inactive: 1.21%. For `COc1ccc2[nH]cc(CCN(C)C)c2c1` the value was inactive: -8.91%; for `CC1C(=O)OC2C1CC[C@@]1(C)C=CC(=O)[C@@]3(C)O[C@@]213` (stereo partly specified), inactive: -14.8%. Turning to `Cc1nnc2n1-c1sc(Br)cc1C(c1ccccc1Cl)=NC2`, the activation is inactive: 8.86%. Regarding `N#Cc1nn(-c2c(Cl)cc(C(F)(F)F)cc2Cl)c(N)c1S(=O)C(F)(F)F` (stereo unspecified), the activation was inactive: -36.3% and inactive: -27.9% and inactive: -24.1%. Consider `O=C(Oc1ccccc1)N1CCC[C@@]2(CCN(Cc3ccccc3)C2)C1`, for which the activation is inactive: -1.45%. For `CN1CC[C@@H]2CN3CCc4cccc(c43)[C@H]2C1` the value was inactive: 2.5%; for `COc1cc(CC(C)N)c(OC)cc1Br` (stereo unspecified), inactive: -6.33% and inactive: 10.2%; for `C[N+](C)(C)CC(=O)[O-]`, inactive: -3.82%. Take `N#CC1(N2CCCCC2)CCCCC1`: the activation was inactive: -19.5%. Take `CNC1[C@@H](O)C(OC2C(N)C[C@H](N)[C@@H](O[C@@H]3OC(C(C)O)C(O)C(O)C3N)C2O)OC[C@]1(C)O` (stereo partly specified): the activation is inactive: -10.3%. Consider `C[N+]1(C)C2CCC1CC(OC(=O)C(CO)c1ccccc1)C2` (stereo unspecified), for which the activation was inactive: -11.5% and inactive: -12.1%. As for `CCCN(CCC)C1Cc2cc(OC)c(OC)cc2C1`, the activation was inactive: -14.7% and inactive: -4.86% and inactive: 5.64%. As for `CC1CCC(C(C)C)C(OC(=O)c2ccccc2N)C1` (stereo unspecified), the activation is inactive: -10.3%. `O=c1c2ccccc2[se]n1-c1ccccc1`: the activation is inactive: 7.23% and inactive: 3.37% and inactive: -15%. For the compound `C[C@H]1[C@H]2Cc3ccc(O)cc3[C@]1(C)CCN2CCc1ccccc1`, the activation is inactive: -6.19%. For `c1ccc2c(c1)Nc1ccccc1S2` the value was inactive: 2.83%; for `O=C(O)c1nn(Cc2ccc(Cl)c(Cl)c2)c2ccccc12`, inactive: -13%; for `C[C@]12CC[C@H]3[C@@H](CC=C4C[C@@H](O)CC[C@@]43C)[C@@H]1CC[C@@H]2O`, inactive: 8.58%. Regarding `CC(C)(C)C(O)C(Oc1ccc(Cl)cc1)n1cncn1` (stereo unspecified), the activation is inactive: -11.3%. Consider `Nc1ccc(Cl)cc1`, for which the activation is inactive: 25.8%. Regarding `CC(C)CN1CCCC2(CCN(C(=O)c3ccncc3)CC2)C1`, the activation is inactive: -7.81%. Take `CN[C@@H](C)[C@H](O)c1ccccc1`: the activation was inactive: -16.3%.

Consider `O=C1/C(=C/c2ccc(N(CCCl)CCCl)cc2)Cc2ccccc21`, for which the activation is inactive: -1.94%.

Take `C=CCN1CC[C@]23CCCCC2[C@H]1Cc1ccc(O)cc13` (stereo partly specified): the activation was inactive: -20.1%.

Turning to `CC[C@]1(O)CC[C@H]2[C@@H]3CCC4=CCCC[C@@H]4[C@H]3CC[C@@]21C`, the activation was inactive: -11.2%.

`S=C=Nc1cccc(C2(N3CCCCC3)CCCCC2)c1`: the activation was inactive: -1.36%. With `CNC(=O)CSP(=S)(OC)OC`, the activation is inactive: -18.3%.

Regarding `CCNc1nc(Cl)nc(NC(C)C)n1`, the activation is inactive: -2.41%. With `CCOC(=O)[C@]12Cc3ccsc3[C@H]1N(Cc1ccccc1)C(=O)c1ccccc12`, the activation was inactive: 4.67%.

On to `COC(=O)[C@@H](N)CCCN/C(N)=N/[N+](=O)[O-]`, for which the activation is inactive: -17.6%. On to `O=C1C=CC[C@@H]2[C@H]3CCCN4CCC[C@@H](CN12)[C@@H]34`, for which the activation was inactive: -25.4%.

In the case of `CC(C)(C#N)O[C@H]1OC(CO)C(O)C(O)C1O` (stereo partly specified), the activation is inactive: -11.4%. With `CC12NC(Cc3ccccc31)c1ccccc12` (stereo unspecified), the activation was inactive: -21.4%. In the case of `COc1cc2c(cc1O)CCNC2C` (stereo unspecified), the activation is inactive: -16.1%. For `CC1=C(O)C(=O)[C@@H]2O[C@@H]2C1=O`, the activation was inactive: -14.8%. For the compound `C[N+]1([O-])[C@@H]2CC(OC(=O)[C@H](CO)c3ccccc3)C[C@H]1[C@@H]1O[C@@H]12` (stereo partly specified), the activation is inactive: 7.95%. For `CCCCCCCCOC(=O)c1ccccc1C(=O)OCCCCCCCC`, the activation is inactive: -17.3%. Turning to `NC(CCCCCP(=O)(O)O)C(=O)O` (stereo unspecified), the activation is inactive: -0.675%.
